{"source": "PubChem BioAssay AID686979", "about": "(National Center for Advancing Translational Sciences (NCATS), 2013)", "note": "“And” between values parts separate entries of the source, which are not always exact repeats. Equal entries are not always repeated. About 50,000 (12%) of roughly 420,000 compounds were called active. This list was built around the results that the source calls inconclusive (neither active nor inactive); the mix of calls is not that of the screen. Calls follow the shape of the dose curve; as a rule, active = well fitted inhibition curve with a large enough effect; inconclusive = small, poorly fitted or top-dose-only effect; inactive = flat fitted curve, though single readings scatter. Where the call is inconclusive, the potency comes from a doubtful curve fit. % is scaled to controls: 0 for no effect and ±100 for the full control effect; potency is read from the fitted curve at half-maximal effect; tags tell the direction and shape of the fitted curve."}
{"experiment": "qHTS for Inhibitors of human tyrosyl-DNA phosphodiesterase 1 (TDP1): qHTS in cells in presence of CPT; also: nearly all actives have a fitted effect of over 55% in size", "conditions": "chicken DT40 Tdp1-/-;hTDP1 cells + 20 nM CPT, ATP luminescence, 48 h; activity change, negative = growth inhibition: at 46.2 µM (top of the series) unless noted", "summary_of_the_method": "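Cell growth measured by CellTiter-Glo luminescence after a minimum 48 h, 37 C compound exposure with 20 nM CPT in Tdp1-knockout DT40 cells stably expressing hTDP1, seeded 400/well; qHTS titration format.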"}
{"smiles": "O=c1[nH]c(/C=C/c2ccc(OC(F)F)cc2)nc2c1cnn2-c1ccccc1", "Potency": "inconclusive: 3.66 µM [inhibitor, full curve, poor fit]"}
{"smiles": "Cc1onc(-c2c(F)cccc2Cl)c1C(=O)Nc1sc2c(c1C#N)CCC(C(C)(C)C)C2", "note": "(configuration not stated)", "Potency": "inconclusive: 29.1 µM [inhibitor, single point]"}
{"smiles": "CC(=O)OC(COc1ccccc1)Cn1cnc2cc(C)c(C)cc21", "note": "(configuration not stated)", "Potency": "inactive and inconclusive: 18.4 µM [inhibitor, partial curve]"}
{"smiles": "CCCn1c(CCC(=O)Nc2cc(Cl)c(OC)cc2OC)nc2cccnc21", "Potency": "inconclusive: 23.1 µM [inhibitor, single point]"}
{"smiles": "Cc1ccc(C)c(NC(=O)CSc2ncc3c(n2)-c2ccc(Cl)cc2N(C)S3(=O)=O)c1", "Potency": "inconclusive: 20.6 µM [inhibitor, single point]"}
{"smiles": "COc1ccc(C2CC(c3cccs3)=NN2C(=O)c2ccccc2)cc1OC", "note": "(configuration not stated)", "activity change, negative = growth inhibition": "inactive: 0.683%"}
{"smiles": "COc1ccccc1N=CC1=C(O)CC(c2ccccc2)CC1=O", "note": "(configuration not stated)", "Potency": "active: 5.17 µM"}
{"smiles": "O=C(NC1=NCCS1)c1ccc(Cl)c(S(=O)(=O)N2CCCC2)c1", "activity change, negative = growth inhibition": "inactive: -18.7%"}
{"smiles": "O=C(OCC(=O)N1CCCCC1)c1cc(S(=O)(=O)N2CCOCC2)c(Cl)cc1Cl", "activity change, negative = growth inhibition": "inactive: 4.03%"}
{"smiles": "Cc1cc(SCC(=O)OCC(=O)N(CCC#N)c2ccccc2)nc2ccccc12", "activity change, negative = growth inhibition": "inactive: -7.77%"}
{"smiles": "O=C(COc1ccccc1F)Nc1ccc(S(=O)(=O)Nc2nccs2)cc1", "activity change, negative = growth inhibition": "inactive: -3.22%"}
{"smiles": "CCOC(=O)c1sc(NC(=O)c2cc3c(s2)CCC(C)C3)nc1C", "note": "(configuration not stated)", "activity change, negative = growth inhibition": "inactive: -11.7%"}
{"smiles": "Cc1c(C(=O)Nc2ccc(N3CCOCC3)cc2)oc2ccccc12", "Potency": "inconclusive: 29.1 µM [inhibitor, single point]"}
{"smiles": "O=C(Cn1c(=O)n(-c2ccccc2Cl)c(=O)c2sc3ccccc3c21)N1CCCC1", "Potency": "inconclusive: 14.6 µM [inhibitor, partial curve, poor fit]"}
{"smiles": "C=CCn1c(-c2ccc3[nH]c(C)c(C)c3c2)n[nH]c1=S", "Potency": "inconclusive: 25.9 µM [inhibitor, partial curve, poor fit]"}
{"smiles": "O=C(CN1C(=O)CSc2ccc(S(=O)(=O)N3CCCCC3)cc21)NCc1ccccc1Cl", "activity change, negative = growth inhibition": "inactive: -22.5%"}
{"smiles": "COCC1CCN(C(=O)c2cc(COc3ccc(OC)c4ccccc34)on2)C1", "note": "(configuration not stated)", "Potency": "inconclusive: 11.6 µM [inhibitor, single point]"}
{"smiles": "c1ccc2sc(SCSc3nc4ccccc4s3)nc2c1", "Potency": "inconclusive: 25.9 µM [inhibitor, single point]"}
{"smiles": "CCOC(=O)N1CCC(c2nc3ccccc3[nH]2)CC1", "activity change, negative = growth inhibition": "inconclusive: -23.2% [inhibitor]"}
{"smiles": "CCc1nc2cccnc2n1-c1ccc(CC(=O)Nc2ccc(C)cc2)cc1", "Potency": "inconclusive: 16.4 µM [inhibitor, single point]"}
{"smiles": "O=C(CSc1nc2ccccc2s1)N/N=C/c1cc([N+](=O)[O-])ccc1O", "Potency": "inconclusive: 29.1 µM [inhibitor, single point]"}
{"smiles": "CNC(=O)COc1ccc(S(=O)(=O)N2CCCC2)cc1", "Potency": "active: 29.1 µM"}
{"smiles": "O=C(CSc1ncnc2ccccc12)Nc1cccc(S(=O)(=O)N2CCCC2)c1", "Potency": "inconclusive: 20.6 µM [inhibitor, single point]"}
{"smiles": "CCOC(=O)CSc1nc2cc(S(=O)(=O)Nc3ccccc3OC)ccc2o1", "activity change, negative = growth inhibition": "inconclusive: -34% [inhibitor]"}
{"smiles": "CSc1ncccc1C(=O)Nc1cccc(S(=O)(=O)N2CCOCC2)c1", "activity change, negative = growth inhibition": "inactive: 1.28%"}
{"smiles": "COc1cccc(CC2(CO)CCCN(Cc3ccc(CO)o3)C2)c1", "note": "(configuration not stated)", "activity change, negative = growth inhibition": "inactive: -15.1%"}
{"smiles": "CN(C(=O)c1ccc(NC(=O)Cc2ccc(NC(=O)C3CCN(C(=O)CCc4ccccc4)CC3)cc2)cc1)C1CCCC1", "Potency": "active: 23.1 µM"}
{"smiles": "CC(C)N(Cc1ccccc1)C(=O)CN1C(=O)COc2ccc(S(=O)(=O)NC3CCCC3)cc21", "Potency": "active: 25.9 µM"}
{"smiles": "Cc1ccc(S(=O)(=O)N2CCN(C(C)C(=O)Nc3ccccc3-c3ccccc3)CC2)cc1", "note": "(configuration not stated)", "Potency": "inconclusive: 29.1 µM [inhibitor, single point]"}
{"smiles": "O=[N+]([O-])c1c(NCCO)cc(N2CCCCC2)c2nonc12", "activity change, negative = growth inhibition": "inactive: 2.29%"}
{"smiles": "Cc1ccc(C(=O)NCC#N)cc1", "activity change, negative = growth inhibition": "inconclusive: -37.8% [inhibitor]"}
{"smiles": "O=C(Nc1c2ccccc2nc2ccccc12)C(Cl)(Cl)Cl", "Potency": "active: 16.4 µM"}
{"smiles": "Cc1cc(C)cc(NC(=O)CCc2nnc3n(CC(C)C)c(=O)c4ccccc4n23)c1", "activity change, negative = growth inhibition": "inactive: -19.3%"}
{"smiles": "CCN(CC)S(=O)(=O)c1cc(C(=O)Nc2cc(S(=O)(=O)N3CCOCC3)ccc2N2CCN(C)CC2)ccc1C", "Potency": "inconclusive: 29.1 µM [inhibitor, single point]"}
{"smiles": "CC(=O)NC(NC(C)=O)c1ccc(Br)cc1", "activity change, negative = growth inhibition": "inactive: -1.82%"}
{"smiles": "COc1ccc(C(=O)Nc2nc(C)c(C)s2)cc1OC", "Potency": "inconclusive: 16.4 µM [inhibitor, partial curve]"}
{"smiles": "O=[N+]([O-])c1cc(C(F)(F)F)ccc1N1CCN(S(=O)(=O)c2ccc3c(c2)CCCC3)CC1", "Potency": "inconclusive: 29.1 µM [inhibitor, single point]"}
{"smiles": "COc1ccc(-c2[nH]c3ccccc3c2SCCNC(=O)c2ccccc2)cc1", "Potency": "active: 13 µM"}
{"smiles": "CCCC[C@@H]1CNC(=S)N1CC1CCCCC1", "Potency": "inconclusive: 20.6 µM [inhibitor, single point]"}
{"smiles": "C[C@H](NC(=O)[C@H]1N2C(=O)c3ccccc3C2SC1(C)C)C(=O)N1CCC[C@H]1CO", "note": "(some centres not stated)", "activity change, negative = growth inhibition": "inactive: 0.467%"}
{"smiles": "O=C(NC(=S)Nc1cccc(CO)c1)c1ccc(-c2ccccc2)cc1", "Potency": "active: 23.1 µM"}
{"smiles": "CCN(C(=O)CSc1nc2ccccc2n1CC(=O)Nc1ccccc1C)c1ccccc1", "Potency": "inconclusive: 29.1 µM [inhibitor, single point]"}
{"smiles": "COc1cc(CNc2ccc3[nH]c(=O)[nH]c3c2)ccc1OCc1ccccc1F", "Potency": "active: 20.6 µM"}
{"smiles": "CC1CCCN(C(=O)c2ccc3c(=O)n(C4CCCC4)c(=S)[nH]c3c2)C1", "note": "(configuration not stated)", "Potency": "active: 20.6 µM"}
{"smiles": "CC(C)c1ccc(OCC(=O)Nc2ccc(OC(F)(F)F)cc2)cc1", "activity change, negative = growth inhibition": "inactive: -10.5%"}
{"smiles": "COc1ccc2nc(-c3ccccn3)ccc2c1", "Potency": "inconclusive: 25.9 µM [inhibitor, single point]"}
{"smiles": "Cc1ccc(OCC(=O)N/N=C/C=C/c2ccco2)cc1", "Potency": "active: 8.2 µM"}
